The test system of one test is cultured bloodstream T. brucei (strain 427).
Conditions: not given
On to `Cl.Cl.NCCc1c[nH]cn1` [compound 475, 2‐(1H‐imidazol‐4‐yl)ethylamine dihydrochloride], for which the “T. brucei Alamar Blue” value worked out at 118.7 ± 4.4.

Still in this test, the particulars now being: Supplementary Table 1; compound 0.5 mM; percentage of controls in the absence of compound; mean ± SD (n=3) or SE (n=2).
As for `CC12CCC(O)(CC1)CC2=O` [compound 222, 4‐hydroxy‐1‐methylbicyclo[2.2.2]octan‐2‐one], the “T. brucei Alamar Blue” value was 106.5 ± 8.6 percentage of controls.

Take `OCc1ccc(CN2CCCC2)cc1` [compound 559, [4‐(pyrrolidin‐1‐ylmethyl)phenyl]methanol]: the “T. brucei Alamar Blue” value is listed as 82.9 ± 2.2 percentage of controls.

For `CC(=O)c1sc(C)nc1C` [compound 226, 1‐(2,4‐dimethyl‐1,3‐thiazol‐5‐yl)ethan‐1‐one], the “T. brucei Alamar Blue” value was 96.5 ± 10.9 percentage of controls.

As to `Cl.c1ccc2c(c1)CCNC2` [compound 343, 1,2,3,4‐tetrahydroisoquinoline hydrochloride], the “T. brucei Alamar Blue” value is 67 ± 10.6 percentage of controls.

Take `CC(=O)Nc1cc(C)ccc1O` [compound 303, N1‐(2‐hydroxy‐5‐methylphenyl)acetamide]: the “T. brucei Alamar Blue” value is 82.9 ± 18.1 percentage of controls.

On to `CC(=O)c1cc(F)cc(F)c1O` [compound 360, 1‐(3,5‐difluoro‐2‐hydroxyphenyl)ethan‐1‐one], for which the “T. brucei Alamar Blue” value is 98.4 ± 8.8 percentage of controls.

Take `O=C(O)C1CC2CC1CCC2O` (stereo not shown) [compound 345, 2‐hydroxybicyclo[3.2.1]octane‐6‐carboxylic acid]: the “T. brucei Alamar Blue” value is 81.9 ± 2.6 percentage of controls.

For the compound `OCc1cc(F)cc2c1OCOC2` [compound 476, (6‐fluoro‐4H‐1,3‐benzodioxin‐8‐yl)methanol], the “T. brucei Alamar Blue” value was 33.3 ± 4.3 percentage of controls.

`Cn1nc(-c2cccs2)cc1CO` [compound 587, (1‐methyl‐3‐thien‐2‐yl‐1H‐pyrazol‐5‐yl)methanol]: the “T. brucei Alamar Blue” value is given as 61.3 ± 11.9 percentage of controls.

On to `O=C1COc2cc(O)ccc21` [compound 182, 6‐hydroxy‐2,3‐dihydrobenzo[b]furan‐3‐one], for which the “T. brucei Alamar Blue” value was 56.2 ± 7.7 percentage of controls.

For `CNCc1c(-c2ccccc2)noc1C` [compound 637, N‐methyl‐N‐[(5‐methyl‐3‐phenylisoxazol‐4‐yl)methyl]amine], the “T. brucei Alamar Blue” value is on record as 66.1 ± 6.7 percentage of controls.

In the case of `CNCc1ccnc(N2CCCCC2)c1` [compound 671, N‐methyl‐N‐[(2‐piperidin‐1‐ylpyridin‐4‐yl)methyl]amine], the “T. brucei Alamar Blue” value is reported as 27.3 ± 6.8 percentage of controls.

As for `Cc1oc(-c2ccccc2)nc1CCO` [compound 643, 2‐(5‐methyl‐2‐phenyl‐1,3‐oxazol‐4‐yl)ethan‐1‐ol], the “T. brucei Alamar Blue” value was 28.1 ± 8.8 percentage of controls.

`OCC1COc2ccccc2O1` (stereo not shown) [compound 319, 2,3‐dihydro‐1,4‐benzodioxin‐2‐ylmethanol]: the “T. brucei Alamar Blue” value was 77.2 ± 5.4 percentage of controls.

`CC1(C)Cc2cccc(C(=O)O)c2O1` [compound 564, 2,2‐dimethyl‐2,3‐dihydro‐1‐benzofuran‐7‐carboxylic acid]: the “T. brucei Alamar Blue” value is 108.5 ± 16.1 percentage of controls.

Turning to `Cn1nc(C(C)(C)C)cc1N` [compound 216, 3‐(tert‐butyl)‐1‐methyl‐1H‐pyrazol‐5‐amine], the “T. brucei Alamar Blue” value is 97.5 ± 10.1 percentage of controls.

Regarding `Cc1ccc(C#N)c(=O)[nH]1` [compound 109, 6‐methyl‐2‐oxo‐1,2‐dihydropyridine‐3‐carbonitrile], the “T. brucei Alamar Blue” value is recorded as 108.6 ± 5.1 percentage of controls.

As to `COC(=O)c1cccc(CN)c1.Cl` [compound 632, 3‐Aminomethylbenzoic acid methyl ester hydrochloride], the “T. brucei Alamar Blue” value is 57.9 ± 14.5 percentage of controls.

With “(Piperidino‐3‐pyridinyl)methanol [compound 569]”, the “T. brucei Alamar Blue” value is 31.1 ± 5.4 percentage of controls.

As for `NCc1ccc(CN2CCCCC2)cc1` [compound 658, [4‐(piperidinomethyl)phenyl]methylamine], the “T. brucei Alamar Blue” value is 46.6 ± 16.8 percentage of controls.

As for `CC1=NNC(=O)CC1` [compound 31, 6‐methyl‐2,3,4,5‐tetrahydropyridazin‐3‐one], the “T. brucei Alamar Blue” value is 110.1 ± 12.1 percentage of controls.

As to `CC(=O)Nc1ccc2c(c1)CCCC2=O` [compound 644, N1‐(5‐oxo‐5,6,7,8‐tetrahydronaphthalen‐2‐yl)acetamide], the “T. brucei Alamar Blue” value is given as 104.2 ± 9.2 percentage of controls.

As to `CC1(C)Cc2cccc(CO)c2O1` [compound 434, (2,2‐dimethyl‐2,3‐dihydro‐1‐benzofuran‐7‐yl)methanol], the “T. brucei Alamar Blue” value is listed as 30 ± 6.2 percentage of controls.

For the compound `OCc1cccc2c1OCCO2` [compound 322, 2,3‐dihydro‐1,4‐benzodioxin‐5‐ylmethanol], the “T. brucei Alamar Blue” value is 90.8 ± 4.4 percentage of controls.

With `COc1c(C(=O)O)csc1Cl` [compound 575, 5‐chloro‐4‐methoxythiophene‐3‐carboxylic acid], the “T. brucei Alamar Blue” value is 84.1 ± 4.5 percentage of controls.

As for `OCc1ccc2c(c1)OCCO2` [compound 320, 2,3‐dihydro‐1,4‐benzodioxin‐6‐ylmethanol], the “T. brucei Alamar Blue” value is listed as 83.1 ± 11.5 percentage of controls.

Take `OCc1ccc2c(c1)OCCCO2` [compound 453, 3,4‐dihydro‐2H‐1,5‐benzodioxepin‐7‐ylmethanol]: the “T. brucei Alamar Blue” value is recorded as 111.4 ± 1.5 percentage of controls.

Turning to `CC1(C)CC(=O)CC(C)(C)N1` [compound 228, 2,2,6,6‐tetramethyltetrahydro‐4(1H)‐pyridinone], the “T. brucei Alamar Blue” value is 98.9 ± 16.8 percentage of controls.

Turning to `Cn1nc(-c2ccccc2)cc1CO` [compound 524, (1‐methyl‐3‐phenyl‐1H‐pyrazol‐5‐yl)methanol], the “T. brucei Alamar Blue” value is recorded as 85.9 ± 17.5 percentage of controls.

For the compound `Nc1ccc2c(c1)OCCCO2` [compound 308, 3,4‐dihydro‐2H‐1,5‐benzodioxepin‐7‐amine], the “T. brucei Alamar Blue” value is 110.4 ± 16.6 percentage of controls.

As to `Cc1nn(C)c(C)c1CN` [compound 128, (1,3,5‐trimethyl‐1H‐pyrazol‐4‐yl)methylamine], the “T. brucei Alamar Blue” value is 87 ± 9.9 percentage of controls.

`NCc1cccc(CN2CCCC2)c1` [compound 550, [3‐(1‐pyrrolidinylmethyl)phenyl]methanamine]: the “T. brucei Alamar Blue” value is listed as 51.6 ± 9 percentage of controls.

For `CN1CCc2c(sc(N)c2C#N)C1` [compound 581, 2‐amino‐6‐methyl‐4,5,6,7‐tetrahydrothieno[2,3‐c]pyridine‐3‐carbonitrile], the “T. brucei Alamar Blue” value is on record as 42.5 ± 18.5 percentage of controls.

As for `CC12CCC(CC1=NO)C2(C)C` (stereo not shown) [compound 332, 1,7,7‐trimethylbicyclo[2.2.1]heptan‐2‐one oxime], the “T. brucei Alamar Blue” value was 106.5 ± 18.9 percentage of controls.

Regarding `Cc1c(CO)cnn1-c1ccccc1` [compound 523, (5‐methyl‐1‐phenyl‐1H‐pyrazol‐4‐yl)methanol], the “T. brucei Alamar Blue” value is 64.9 ± 10.9 percentage of controls.

For `Cn1ncc(CO)c1-c1ccccc1` [compound 530, (1‐methyl‐5‐phenyl‐1H‐pyrazol‐4‐yl)methanol], the “T. brucei Alamar Blue” value is listed as 66.6 ± 15.6 percentage of controls.

For `ON=C1CCCc2ccccc21` [compound 279, 1,2,3,4‐tetrahydronaphthalen‐1‐one oxime], the “T. brucei Alamar Blue” value is reported as 18.8 ± 5.8 percentage of controls.

Consider `CC(=O)Nc1ccc2c(c1)CCC2=O` [compound 535, N1‐(1‐oxo‐2,3‐dihydro‐1H‐inden‐5‐yl)acetamide], for which the “T. brucei Alamar Blue” value was 97.5 ± 6.6 percentage of controls.

Regarding `CC1(C(=O)O)CC2C=CC1C2` (stereo not shown) [compound 205, 2‐methylbicyclo[2.2.1]hept‐5‐ene‐2‐carboxylic acid], the “T. brucei Alamar Blue” value is 91.3 ± 1.8 percentage of controls.

In the case of `CN1N=C(C(F)(F)F)CC1=O` [compound 315, 1‐methyl‐3‐(trifluoromethyl)‐4,5‐dihydro‐1H‐pyrazol‐5‐one], the “T. brucei Alamar Blue” value is reported as 103.3 ± 15.9 percentage of controls.

For the compound `Cn1nc(O)cc1C(F)(F)F` [compound 316, 1‐methyl‐5‐(trifluoromethyl)‐1H‐pyrazol‐3‐ol], the “T. brucei Alamar Blue” value is reported as 91.7 ± 8.2 percentage of controls.

With `NCc1csc(-c2cccs2)n1` [compound 599, [2‐(2‐thienyl)‐1,3‐thiazol‐4‐yl]methylamine], the “T. brucei Alamar Blue” value is on record as 35.2 ± 15.5 percentage of controls.

In the case of `CCOC(=O)c1c(N)sc(C)c1C` [compound 617, ethyl 2‐amino‐4,5‐dimethylthiophene‐3‐carboxylate], the “T. brucei Alamar Blue” value is listed as 100.4 ± 13.8 percentage of controls.

For the compound `COC(=O)c1cc2ccsc2[nH]1` [compound 463, methyl 6H‐thieno[2,3‐b]pyrrole‐5‐carboxylate], the “T. brucei Alamar Blue” value is recorded as 85.3 ± 19.7 percentage of controls.

In the case of `CC(=O)c1ccc2c(c1)OCCO2` [compound 430, 1‐(2,3‐dihydro‐1,4‐benzodioxin‐6‐yl)ethan‐1‐one], the “T. brucei Alamar Blue” value is listed as 90.9 ± 7.7 percentage of controls.

Consider `Cc1cc(C(=O)O)c2cc(F)ccc2n1` [compound 660, 6‐fluoro‐2‐methyl‐4‐quinolinecarboxylic acid], for which the “T. brucei Alamar Blue” value is reported as 115.1 ± 0.7 percentage of controls.

In the case of `CN(N)c1cc(C(F)(F)F)ccn1` [compound 554, 2‐(1‐methylhydrazino)‐4‐(trifluoromethyl)pyridine], the “T. brucei Alamar Blue” value is 96.3 ± 4.3 percentage of controls.

For `Cc1nc2ccccn2c1CO` [compound 287, (2‐methylimidazo[1,2‐a]pyridin‐3‐yl)methanol], the “T. brucei Alamar Blue” value is on record as 84.7 ± 18.1 percentage of controls.

For `CC(=O)c1cc2cc(Cl)ccc2o1` [compound 589, 1‐(5‐chlorobenzo[b]furan‐2‐yl)ethan‐1‐one], the “T. brucei Alamar Blue” value is 81.4 ± 11.7 percentage of controls.

As for `CN1C2CCC1CC(=NO)C2.Cl` [compound 552, 8‐methyl‐8‐azabicyclo[3.2.1]octan‐3‐one oxime hydrochloride], the “T. brucei Alamar Blue” value is 94.3 ± 14.4 percentage of controls.

As for `NC(=S)c1cccc2c1OCCO2` [compound 592, 2,3‐dihydro‐1,4‐benzodioxine‐5‐carbothioamide], the “T. brucei Alamar Blue” value is on record as 67.7 ± 17 percentage of controls.

(Values after PMC3199943, “Screening the MayBridge Rule of 3 Fragment Library for Compounds That Interact with the Trypanosoma brucei myo-Inositol-3-Phosphate Synthase and/or Show Trypanocidal Activity” (Molecular Biology International, 2011).)
